The source of these data is paper PMC12820563, “FoxP3 forms a head-to-head dimer in vivo and stabilizes its multimerization on adjacent microsatellites”.

The list shows a part of the results.

The assay concerns the target T1, MBP-FoxP1dN (Mus musculus, UniProt P58462 326-579).
T1 sequence: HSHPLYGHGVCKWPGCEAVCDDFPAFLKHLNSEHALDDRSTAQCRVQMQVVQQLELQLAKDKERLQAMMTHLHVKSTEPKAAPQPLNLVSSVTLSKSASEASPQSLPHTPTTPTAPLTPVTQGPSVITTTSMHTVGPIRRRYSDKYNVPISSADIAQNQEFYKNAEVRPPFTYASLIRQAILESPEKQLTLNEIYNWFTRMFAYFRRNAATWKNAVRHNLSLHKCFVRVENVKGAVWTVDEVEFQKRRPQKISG
In words: PD-seq (MBP pull-down with sequencing); 20 mM Tris-HCl pH 7.5, 100 mM NaCl, 1.5 mM MgCl2, 0.4 uM protein, 0.1 uM dsDNA library, 30 min, room temperature, amylose pull-down; high values mean tight binding. As to conditions: protein: recombinant; tags: His6-MBP; chain copies: 2; dsDNA, one strand shown. The procedure, abridged:
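In Tris pH 7.5 buffer with NaCl and MgCl2, 0.4 µM His6-MBP-tagged mouse FoxP3 or FoxP1 fragment lacking the N-terminus, from E. coli, met 0.1 µM Klenow-filled double-stranded degenerate DNA library for 30 min at room temperature. Three washes on amylose resin followed capture of the complexes, then proteinase K release of DNA, PCR barcoding and Illumina sequencing. Binding is taken as pooled-replicate reads-per-million enrichment of pull-down relative to input.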
Consider “GATGATTGTTCTCCCAGCTGATGAATTATGCTGGTCGAGTAAACAAATTTTCCTAATCTTTCTGTTCAAGCGCCATCTAC”, for which the binding signal is 1.01 RPM ratio (pull-down/input). As for “GATGATTGTTCTCCCAGCTGATGAATTTAATGTGTCGAGTAAACAAATTTTCCTAATCTTTCTGTTCAAGCGCCATCTAC”, the figure is 1.07 RPM ratio (pull-down/input); as for “GATGATTGTTCTCCCAGCTGATGAATTTTTGTCTTCGAGTAAACAAATTTTCCTAATCTTTCTGTTCAAGCGCCATCTAC”, 1.05 RPM ratio (pull-down/input). Consider “GATGATTGTTCTCCCAGCTGATGAATTTGGGTCTTCGAGTAAACAAATTTTCCTAATCTTTCTGTTCAAGCGCCATCTAC”, for which the binding signal is 0.904 RPM ratio (pull-down/input). Consider “GATGATTGTTCTCCCAGCTGATGAATTCTTAGGCTCGAGTAAACAAATTTTCCTAATCTTTCTGTTCAAGCGCCATCTAC”, for which the binding signal is 0.791 RPM ratio (pull-down/input).

As for “GATGATTGTTCTCCCAGCTGATGAATTGCAAATTTCGAGTAAACAAATTTTCCTAATCTTTCTGTTCAAGCGCCATCTAC”, the binding signal is 1.39 RPM ratio (pull-down/input). With “GATGATTGTTCTCCCAGCTGATGAATTATCAACGTCGAGTAAACAAATTTTCCTAATCTTTCTGTTCAAGCGCCATCTAC”, the binding signal is 1.04 RPM ratio (pull-down/input).

With “GATGATTGTTCTCCCAGCTGATGAATTCAACCCGTCGAGTAAACAAATTTTCCTAATCTTTCTGTTCAAGCGCCATCTAC”, the binding signal is 0.968 RPM ratio (pull-down/input). As for “GATGATTGTTCTCCCAGCTGATGAATTTTGCCTATCGAGTAAACAAATTTTCCTAATCTTTCTGTTCAAGCGCCATCTAC”, the figure is 0.955 RPM ratio (pull-down/input); as for “GATGATTGTTCTCCCAGCTGATGAATTTTCACCGTCGAGTAAACAAATTTTCCTAATCTTTCTGTTCAAGCGCCATCTAC”, 0.917 RPM ratio (pull-down/input); as for “GATGATTGTTCTCCCAGCTGATGAATTTGCTCAATCGAGTAAACAAATTTTCCTAATCTTTCTGTTCAAGCGCCATCTAC”, 1.05 RPM ratio (pull-down/input).

On to “GATGATTGTTCTCCCAGCTGATGAATTTCAGAGATCGAGTAAACAAATTTTCCTAATCTTTCTGTTCAAGCGCCATCTAC”, for which the binding signal is 0.805 RPM ratio (pull-down/input).

Take “GATGATTGTTCTCCCAGCTGATGAATTAACACCGTCGAGTAAACAAATTTTCCTAATCTTTCTGTTCAAGCGCCATCTAC”: the binding signal is 1 RPM ratio (pull-down/input). The same measure for “GATGATTGTTCTCCCAGCTGATGAATTGGGAGGCTCGAGTAAACAAATTTTCCTAATCTTTCTGTTCAAGCGCCATCTAC”: 0.814 RPM ratio (pull-down/input); for “GATGATTGTTCTCCCAGCTGATGAATTTGGCGTTTCGAGTAAACAAATTTTCCTAATCTTTCTGTTCAAGCGCCATCTAC”: 0.926 RPM ratio (pull-down/input). As for “GATGATTGTTCTCCCAGCTGATGAATTCTTTGCGTCGAGTAAACAAATTTTCCTAATCTTTCTGTTCAAGCGCCATCTAC”, the figure is 0.999 RPM ratio (pull-down/input). As for “GATGATTGTTCTCCCAGCTGATGAATTCAAAGTCTCGAGTAAACAAATTTTCCTAATCTTTCTGTTCAAGCGCCATCTAC”, the figure is 0.801 RPM ratio (pull-down/input); as for “GATGATTGTTCTCCCAGCTGATGAATTGGGACTCTCGAGTAAACAAATTTTCCTAATCTTTCTGTTCAAGCGCCATCTAC”, 0.812 RPM ratio (pull-down/input).

As to “GATGATTGTTCTCCCAGCTGATGAATTAATCAGTTCGAGTAAACAAATTTTCCTAATCTTTCTGTTCAAGCGCCATCTAC”, the binding signal was 1.06 RPM ratio (pull-down/input). As for “GATGATTGTTCTCCCAGCTGATGAATTGGCGTAATCGAGTAAACAAATTTTCCTAATCTTTCTGTTCAAGCGCCATCTAC”, the figure is 1.3 RPM ratio (pull-down/input); as for “GATGATTGTTCTCCCAGCTGATGAATTGCCGATGTCGAGTAAACAAATTTTCCTAATCTTTCTGTTCAAGCGCCATCTAC”, 0.984 RPM ratio (pull-down/input).

Regarding “GATGATTGTTCTCCCAGCTGATGAATTCCGGAAGTCGAGTAAACAAATTTTCCTAATCTTTCTGTTCAAGCGCCATCTAC”, the binding signal was 0.798 RPM ratio (pull-down/input). As for “GATGATTGTTCTCCCAGCTGATGAATTACAGCCCTCGAGTAAACAAATTTTCCTAATCTTTCTGTTCAAGCGCCATCTAC”, the figure is 0.917 RPM ratio (pull-down/input); as for “GATGATTGTTCTCCCAGCTGATGAATTGAACGCGTCGAGTAAACAAATTTTCCTAATCTTTCTGTTCAAGCGCCATCTAC”, 0.946 RPM ratio (pull-down/input); as for “GATGATTGTTCTCCCAGCTGATGAATTGAGTAATTCGAGTAAACAAATTTTCCTAATCTTTCTGTTCAAGCGCCATCTAC”, 1.02 RPM ratio (pull-down/input). For “GATGATTGTTCTCCCAGCTGATGAATTATAGAGATCGAGTAAACAAATTTTCCTAATCTTTCTGTTCAAGCGCCATCTAC”, the binding signal was 0.873 RPM ratio (pull-down/input). The same measure for “GATGATTGTTCTCCCAGCTGATGAATTCTCTCCTTCGAGTAAACAAATTTTCCTAATCTTTCTGTTCAAGCGCCATCTAC”: 0.83 RPM ratio (pull-down/input); for “GATGATTGTTCTCCCAGCTGATGAATTCCGACCGTCGAGTAAACAAATTTTCCTAATCTTTCTGTTCAAGCGCCATCTAC”: 0.8 RPM ratio (pull-down/input); for “GATGATTGTTCTCCCAGCTGATGAATTACCCACATCGAGTAAACAAATTTTCCTAATCTTTCTGTTCAAGCGCCATCTAC”: 1.06 RPM ratio (pull-down/input). The same measure for “GATGATTGTTCTCCCAGCTGATGAATTTAATTTCTCGAGTAAACAAATTTTCCTAATCTTTCTGTTCAAGCGCCATCTAC”: 0.885 RPM ratio (pull-down/input).

“GATGATTGTTCTCCCAGCTGATGAATTGGATAATTCGAGTAAACAAATTTTCCTAATCTTTCTGTTCAAGCGCCATCTAC”: the binding signal is 0.874 RPM ratio (pull-down/input).
